Hit rate of the full screen: of about 310,000 compounds, about 2,200 (0.71%) showed an effect of 50% or more. The effect is printed as a negative number. Some of the results follow.

The values that follow come from paper PMC4336329 (PLoS ONE, 2015).

This experiment deals with human ether-à-go-go-related gene (hERG) potassium channel (human, UniProt Q12809). Nature of the experiment: primary screen, population patch clamp on CHO cells stably expressing hERG.
human ether-à-go-go-related gene (hERG) potassium channel, sequence (Q12809 whole entry, looked up): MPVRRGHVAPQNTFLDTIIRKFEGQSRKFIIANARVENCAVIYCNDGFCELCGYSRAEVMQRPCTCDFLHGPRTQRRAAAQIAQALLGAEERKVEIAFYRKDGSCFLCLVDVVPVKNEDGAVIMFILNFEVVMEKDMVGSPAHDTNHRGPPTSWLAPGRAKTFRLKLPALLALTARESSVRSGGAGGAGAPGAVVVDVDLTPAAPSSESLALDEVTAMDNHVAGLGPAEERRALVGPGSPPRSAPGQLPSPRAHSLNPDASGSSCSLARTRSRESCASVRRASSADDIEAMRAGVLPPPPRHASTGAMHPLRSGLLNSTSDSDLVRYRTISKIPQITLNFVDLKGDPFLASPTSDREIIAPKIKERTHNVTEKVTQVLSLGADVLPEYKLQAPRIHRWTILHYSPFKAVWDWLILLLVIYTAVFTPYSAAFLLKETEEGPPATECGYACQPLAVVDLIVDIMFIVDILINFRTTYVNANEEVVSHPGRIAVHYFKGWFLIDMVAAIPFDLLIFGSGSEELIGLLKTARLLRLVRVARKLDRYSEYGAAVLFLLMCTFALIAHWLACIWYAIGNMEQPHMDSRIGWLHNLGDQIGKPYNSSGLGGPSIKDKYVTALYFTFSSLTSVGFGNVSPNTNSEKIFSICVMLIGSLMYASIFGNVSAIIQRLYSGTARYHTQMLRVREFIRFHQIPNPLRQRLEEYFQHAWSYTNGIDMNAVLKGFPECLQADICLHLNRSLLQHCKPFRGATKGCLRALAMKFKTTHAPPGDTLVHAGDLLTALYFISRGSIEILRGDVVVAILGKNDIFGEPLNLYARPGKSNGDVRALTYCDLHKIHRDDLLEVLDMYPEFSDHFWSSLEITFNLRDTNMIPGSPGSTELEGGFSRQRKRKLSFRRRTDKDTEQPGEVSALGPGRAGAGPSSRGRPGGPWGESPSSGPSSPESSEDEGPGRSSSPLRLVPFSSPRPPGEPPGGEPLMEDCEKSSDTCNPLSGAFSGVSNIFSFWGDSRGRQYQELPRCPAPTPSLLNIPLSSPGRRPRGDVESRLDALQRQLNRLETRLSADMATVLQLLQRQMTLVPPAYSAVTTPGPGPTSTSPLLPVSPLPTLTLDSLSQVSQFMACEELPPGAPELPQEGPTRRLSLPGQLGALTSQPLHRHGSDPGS
Regarding `Cc1c(C)c2ccc(OC(C)C(=O)N3CC[C@@]4(O)CCCC[C@H]4C3)c(C)c2oc1=O` (stereo partly shown), the “hERG current change (%, negative = inhibition) at 1uM” value came to 17.7%.
As to `CCNC(=S)NNC(=O)c1csc(C)c1`, the “hERG current change (%, negative = inhibition) at 1uM” value is on record as 16.1%.
With `COc1ccc(Nc2nc(C)nc3c2nnn3Cc2ccccc2)cc1OC` the figure was 4.84%; with `CN(C)S(=O)(=O)n1cnc2ccccc21`, 8.28%.
With `CCN1C(=O)c2ccccc2S(=O)c2ccc(C(=O)NCCCN3CCCC3=O)cc21` (stereo not shown) the figure was 6.94%; with `COC(=O)c1ccc(Oc2nc(SC)nc(N(C)C)n2)cc1`, 16.3%.
Take `Cc1cc2c3c(c1)C(C)(c1ccccc1)CC(C)(C)N3C(=O)C21C(C#N)=C(N)OC2=C1C(=O)CC(C)(C)C2` (stereo not shown): the “hERG current change (%, negative = inhibition) at 1uM” value is reported as -8.61%.
`Cc1ccc(Cn2ccc(NC(=O)c3cc(-c4cccs4)on3)n2)cc1`: the “hERG current change (%, negative = inhibition) at 1uM” value came to 7.71%.
With `COc1cccc(-c2nc(CS(=O)(=O)CC(=O)NCCCc3ccccc3)c(C)o2)c1` the figure was 8.94%; with `COc1ccc(CC(NC(C)=O)C(=O)NC2CCN(C(=O)C3CCCCC3)CC2)cc1OC` (stereo not shown), 16.7%; with `Cc1ccc(OCCC(=O)N(CCC(C)C)c2c(N)n(Cc3ccccc3)c(=O)[nH]c2=O)cc1`, 9.14%.
Turning to `COC(=O)c1nc(NNC(=O)c2ccccc2)sc1-c1ccccc1`, the “hERG current change (%, negative = inhibition) at 1uM” value is 14.3%.
With `NC(=O)C1CCN(C(c2ccccc2)c2nnnn2C2CCCC2)CC1` (stereo not shown) the figure was 12.3%.
With `CN(C)c1ccc(/C=N/NC(=O)CNC(=O)c2ccc3c(c2)OCCO3)cc1` the figure was 8.33%; with `CC1CC(C)CN(c2ccc(-n3cnnn3)cc2[N+](=O)[O-])C1` (stereo not shown), -1.54%.
With `COc1cc(N)ccc1C(=O)O` the figure was -1.48%.
With `Nc1nc(SCC(=O)N2CCCC2)[nH]c(=O)c1-c1ccccc1`, the “hERG current change (%, negative = inhibition) at 1uM” value is 14%.
With `CCN1CC(CN(C)Cc2nc(-c3ccc(C(F)(F)F)cc3)no2)CC1=O` (stereo not shown), the “hERG current change (%, negative = inhibition) at 1uM” value turned out to be 0.248%.
The same measure for `Cn1c(SCc2ccc(C(=O)Nc3nccs3)cc2)nnc1-c1ccccc1`: 2.95%; for `CCOc1ccc(NC(=O)c2nn(C)c(C(=O)Nc3ccc(OCC)cc3)c2[N+](=O)[O-])cc1`: 12.3%.
The same measure for `CCCC(C(=O)NCc1ccco1)N(C(=O)CNS(=O)(=O)c1ccccc1)c1ccc(OC)cc1` (stereo not shown): 0.987%.
With `Cc1ccccc1OCCn1cc(/C(N)=N/O)c2ccccc21` the figure was 14%; with `CCCn1c(N)c(N(CCOC)C(=O)CSc2cc(C)c3cccc(C)c3n2)c(=O)[nH]c1=O`, 5.36%; with `CCOC(=O)c1ccc2c(c1)nc(COc1ccc3ccccc3c1)n2CC`, 4.84%.
As to `CN(CCOc1ccccc1)C(=O)C1CCC(=O)N(CCN2CCOCC2)C1` (stereo not shown), the “hERG current change (%, negative = inhibition) at 1uM” value stood at 11.4%.
On to `COC(=O)c1ccc(NC(=O)CSc2nncn2-c2ccccn2)cc1`, for which the “hERG current change (%, negative = inhibition) at 1uM” value amounted to 19.8%.
With `CCCC[C@@H]1CCCO[C@@](C(=O)NCc2ccccn2)(C(F)(F)F)C1` the figure was 4.82%.
The same measure for `O=c1oc(-c2cccs2)nc2c1cnn2-c1ccccc1`: -11.5%; for `COc1ccc(-c2noc(COc3ccc4ccccc4c3Br)n2)cc1OC`: 2.31%.
For the molecule `CCCCN1C(=O)C(=O)N(CC(=O)Nc2ccc(C(N)=O)cc2)C1=O`, the “hERG current change (%, negative = inhibition) at 1uM” value is listed as -0.837%.
With `CNS(=O)(=O)c1cccc(C(=O)NCC2(N3CCCCC3)CCCCC2)c1` the figure was 8.21%.
Turning to `COc1ccc(NCCC#N)cc1`, the “hERG current change (%, negative = inhibition) at 1uM” value turned out to be 7.5%.
With `CCc1ccc(CN2CCC(CO)(CC3CCCCO3)CC2)o1` (stereo not shown) the figure was 4.03%; with `CC(C)(C)C(=O)N1CCN(c2ccc([N+](=O)[O-])c(NCC3CCCO3)c2)CC1` (stereo not shown), 4.57%; with `Cc1nn(-c2ccccc2)c(Cl)c1/C=N/Nc1nc2ccccc2[nH]1`, 10.1%.
The same measure for `NC(CC(=O)NC(c1ccccc1)(c1ccccc1)c1ccccc1)C(=O)O` (stereo not shown): 10.1%; for `O=C(O)c1cccc(-n2cccc2/C=C2\NC(=O)N(Cc3ccc(F)cc3)C2=O)c1`: 9.78%; for `CCN(CC)CC(O)Cn1c(-c2ccccc2Cl)nc2ccccc21` (stereo not shown): 1.07%.
The same measure for `Cc1cccc(C)c1C(=O)N[C@@H](Cc1ccccc1)C(=O)O`: 15.1%.
With `Cc1sc2nc(SCC(=O)N(CCO)CCO)n(C3CCCCC3)c(=O)c2c1C`, the “hERG current change (%, negative = inhibition) at 1uM” value turned out to be 4.67%.
For the molecule `COc1ccccc1Nc1c2c(nc3ccc(N)cc13)CCCC2`, the “hERG current change (%, negative = inhibition) at 1uM” value was -48%.
`Cc1cccc(-n2nc([N+](=O)[O-])c(=NCc3cccnc3)n2O)c1`: the “hERG current change (%, negative = inhibition) at 1uM” value was found to be 4.03%.
As for `COc1ccccc1NC(=O)c1ccc(NC(=O)COC(=O)C2(C)CC2(Cl)Cl)cc1` (stereo not shown), the “hERG current change (%, negative = inhibition) at 1uM” value turned out to be 5.18%.
With `CC(c1ccccc1)n1c(CO)nc2ccccc21` (stereo not shown) the figure was 17.9%.
With `Cc1ccc(CN2CC(C(=O)Nc3ccc(S(=O)(=O)N4CCCCC4)cc3)CC2=O)cc1` (stereo not shown) the figure was 4.79%; with `Cc1c(Br)c([N+](=O)[O-])nn1CC(=O)N1CCN(Cc2ccccc2)CC1`, -19.2%; with `C[C@H](NC(=O)OC(C)(C)C)C(=O)N/N=C/C1=Cc2ccccc2OC1`, 9.34%.
With `COc1cccc(CN(C)C(=O)c2ccccc2Sc2ccccc2C#N)c1` the figure was 14.7%; with `COc1cccc(CC(=O)N[C@@H](CCSC)c2nc3ccccc3[nH]2)c1`, -2.82%.
Consider `CCn1c2ccccc2c2c3ncc4cccn4c3ccc21`, for which the “hERG current change (%, negative = inhibition) at 1uM” value is listed as 16.6%.
With `COc1nc(NCCO)nc(Nc2ccccc2F)n1`, the “hERG current change (%, negative = inhibition) at 1uM” value worked out at 14.7%.
The same measure for `COC(C[C@@H]1O[C@H]1[C@H](O)[C@@H](C)OCc1ccccc1)OC`: -1.45%; for `CCN(CC)c1nc(N2CCN(CCO)CC2)nc2ccccc12.Cl`: 5.07%; for `CSc1ccc(CNC(=O)C(C)n2nc(C)c3c(C)n(-c4ccccc4)nc3c2=O)cc1` (stereo not shown): -8.46%.
`Cc1nc2nc(N)nc(OCc3ccccc3)c2nc1C`: the “hERG current change (%, negative = inhibition) at 1uM” value was 10.6%.
The same measure for `CC(=O)c1cccc(NS(=O)(=O)c2ccc3c(c2)oc(=O)n3C)c1`: 5.98%; for `CC(C)(C)N(Cc1ccccc1)C(=O)COC(=O)CCc1c[nH]c2ccccc12`: 10.4%; for `Cc1ccc(CN(C(=O)Cc2cccs2)C(C(=O)NC2CCCC2)c2ccncc2)cc1` (stereo not shown): -5.88%.
With `COc1ccc(C(=O)NC(=O)COC(=O)C2COc3ccccc3O2)cc1` (stereo not shown) the figure was 4.15%.
In the case of `CCC(C)(c1ccc(C(=O)OC)s1)c1ccc(C(=O)OC)s1`, the “hERG current change (%, negative = inhibition) at 1uM” value is on record as 5.28%.
As to `CN(C(=O)CCN1C(=O)/C(=C/c2ccccc2F)SC1=S)C1CCS(=O)(=O)C1` (stereo not shown), the “hERG current change (%, negative = inhibition) at 1uM” value is reported as 5.42%.
On to `Nc1c(Cl)ncnc1N/N=C/c1cccnc1`, for which the “hERG current change (%, negative = inhibition) at 1uM” value is given as 9.7%.
Consider `Clc1cccc(CSc2ccc(-c3ccco3)nn2)c1`, for which the “hERG current change (%, negative = inhibition) at 1uM” value amounted to 12.3%.
With `NS(=O)(=O)c1ccc2nc(-c3ccccc3)c(-c3ccccc3)nc2c1` the figure was -1.42%; with `CC(C)NC(=O)CC1(C(=O)NCc2ccc(Cl)cc2)CCCC1`, 19.8%; with `CCS(=O)(=O)N1CCN(C(=O)c2cccc(OC)c2)CC1`, 4.65%.
In the case of `COc1ccc(NC(=O)CSc2nncn2N)c(OC)c1`, the “hERG current change (%, negative = inhibition) at 1uM” value was determined as 15.7%.
The same measure for `CCC(=O)NNc1nc2c(F)cc(F)cc2s1`: 11.4%.
With `Cc1nc2ccccc2nc(C)c1=NOCc1ccc(Cl)cc1Cl` the figure was 0.014%; with `CC(C)N(O)C(=O)NC(C)(C)C`, 7.03%.
Regarding `COc1ccc(OC)c(S(=O)(=O)Nc2cc(Cl)cc(Cl)c2)c1`, the “hERG current change (%, negative = inhibition) at 1uM” value is -4.43%.
Turning to `C=CCn1c(=O)c2c(C)c(C)sc2n2c(Nc3ccccc3)nnc12`, the “hERG current change (%, negative = inhibition) at 1uM” value is reported as 14.9%.
The same measure for `COc1cccc(CN2CC(C(=O)NCc3ccc(C)c(F)c3)CCC2=O)c1` (stereo not shown): -0.169%; for `Nc1ccc(NS(=O)(=O)c2ccccc2)cc1`: 6.65%; for `O=c1[nH]c(=O)n(Cc2ccc(F)cc2)c(O)c1C=NCc1cccnc1`: 10.8%.
`CCCOc1ccc(/C(O)=C2/C(=O)C(=O)N(CCCn3ccnc3)C2c2ccco2)cc1` (stereo not shown): the “hERG current change (%, negative = inhibition) at 1uM” value is 8.29%.
For `CCOc1cc(C(=O)Nc2ccc(F)cc2)cc(Br)c1OC`, the “hERG current change (%, negative = inhibition) at 1uM” value is on record as 14.8%.
With `O=C(Nc1ccc(F)c(F)c1)C1CCCN(S(=O)(=O)c2cccc3nonc23)C1` (stereo not shown) the figure was 10.9%; with `Cc1ccc(S(=O)(=O)N2CCCC2C(=O)OCc2nc3sc(C)c(C)c3c(=O)[nH]2)cc1` (stereo not shown), 22.3%.
In the case of `CCCc1cc(=O)oc2c(C)c(OCC(=O)NCCCN3CCOCC3)ccc12`, the “hERG current change (%, negative = inhibition) at 1uM” value is recorded as -2.86%.
With `O=C(NCc1nnnn1-c1ccc(F)c(F)c1)C(=O)c1c[nH]c2ccccc12` the figure was 14.5%; with `C=CCNC(=S)N/N=C/c1ccc(C(F)(F)F)cc1`, 9.95%.
With `O=C(NCCCN1CCCC1=O)c1cccc(Oc2ccccc2)c1` the figure was 16.4%.
As to `COc1ccc(CNC(=O)C2(CC3CC(c4ccccc4)=NO3)CCN(C(=O)C3(C)CC3)CC2)cc1` (stereo not shown), the “hERG current change (%, negative = inhibition) at 1uM” value is -37.1%.
Take `Cc1nn(CC(=O)NCCc2ccccc2)c(=O)c2cccn12`: the “hERG current change (%, negative = inhibition) at 1uM” value was determined as 11.4%.
Turning to `O=C(Cn1ccnc1)c1ccc(Cl)cc1`, the “hERG current change (%, negative = inhibition) at 1uM” value came out at 11.7%.
Turning to `Cc1ccc(C(=O)O/N=C2\CCS(=O)(=O)c3sccc32)cc1`, the “hERG current change (%, negative = inhibition) at 1uM” value turned out to be 13.8%.
The same measure for `Cc1nn(C)cc1-c1n[nH]c(=S)n1-c1ccc(Cl)cc1`: 12.4%.
